The list shows a part of the results. The energies were worked out here from pooled read counts, against the library average; single values are noisy.
target: T1, Pho4 (S. cerevisiae) (UniProt P07270); assay: relative binding free energy (BET-seq); higher = weaker binding; details: reference: library average
T1 sequence: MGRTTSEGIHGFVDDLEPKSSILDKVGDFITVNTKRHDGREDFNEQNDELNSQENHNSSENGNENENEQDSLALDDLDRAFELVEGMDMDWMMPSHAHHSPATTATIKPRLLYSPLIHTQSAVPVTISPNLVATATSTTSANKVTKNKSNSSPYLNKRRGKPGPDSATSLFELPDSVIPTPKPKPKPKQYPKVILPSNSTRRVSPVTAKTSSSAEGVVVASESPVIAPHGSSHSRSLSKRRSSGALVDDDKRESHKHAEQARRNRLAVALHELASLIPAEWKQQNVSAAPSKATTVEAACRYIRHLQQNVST

Relative binding free energy, -0.21 kcal/mol:
AGTAGCACGTGCGGGC

Relative binding free energy, 0.32 kcal/mol:
GGATTCACGTGTCTGG
AGATTCACGTGGAGGA

Relative binding free energy, -0.23 kcal/mol:
TTAAGCACGTGGCTTT

Relative binding free energy, -0.05 kcal/mol:
TGTTGCACGTGATCAT
TTGGGCACGTGTGCTT

Relative binding free energy, 0.19 kcal/mol:
GGTTCCACGTGATCGG
GGGCGCACGTGATGAT

Relative binding free energy, -0.26 kcal/mol:
CAGGGCACGTGGGTAG

Relative binding free energy, 0.05 kcal/mol:
CGGTGCACGTGTCGTT
GTGTCCACGTGTGGGC
AATGACACGTGGTAGA
CGTGTCACGTGTCAGT
CGGAGCACGTGCTGTT

Relative binding free energy, 0.09 kcal/mol:
ATTAACACGTGGATAG
TACATCACGTGTAGGT
TCGTGCACGTGATGTA
GTGTGCACGTGTGGAG

Relative binding free energy, -0.01 kcal/mol:
GTGTACACGTGTCATG
AATTACACGTGGTTTA
TTAGGCACGTGAGCGT
CGAGTCACGTGTTGTA
CAGTACACGTGGTTTG
GCGGTCACGTGGGGCG
ACCGGCACGTGTAGGT
TAGTGCACGTGTCAGT
GGCCGCACGTGAGTGG

Relative binding free energy, -0.28 kcal/mol:
TTAAGCACGTGGTATA

Relative binding free energy, 0.18 kcal/mol:
GTTTGCACGTGTGTGA
TATTGCACGTGATTAG
TGTCTCACGTGGATGA
TTTTACACGTGCCGGG
AGGATCACGTGATGTT
GAAGTCACGTGTGTGG
TGCTGCACGTGAGTTA

Relative binding free energy, -0.03 kcal/mol:
TCTGCCACGTGTGTTT
AAGGTCACGTGGGGTC
TGGGTCACGTGCTCAG
CAGGACACGTGGGGGC
ATAGGCACGTGTGTAA
TTTAACACGTGGTGGT
ATTATCACGTGCTGGT

Relative binding free energy, -0.19 kcal/mol:
AGGTGCACGTGGCGCA

Relative binding free energy, 0.06 kcal/mol:
ATTTTCACGTGCGAGT
GTGATCACGTGGTGGG
CGTCTCACGTGTGTGG
ACATACACGTGTGGGT
ATAAACACGTGTAGTA
AATGACACGTGTTTGA

Relative binding free energy, 0.25 kcal/mol:
GTCGTCACGTGTGTTG
TCTGTCACGTGTAGGA
AGCGTCACGTGAGGAG
GGGTACACGTGAATTA
TTGTACACGTGAGTAC

Relative binding free energy, 0.11 kcal/mol:
GGCCGCACGTGGTATT
GAAGACACGTGGTATT
CGTTGCACGTGTTAGC
ATTTGCACGTGATTAT
ATTGGCACGTGAGTAT
CTGGTCACGTGCTAGG

Relative binding free energy, -0.13 kcal/mol:
TGGTGCACGTGACGTA
CTAAGCACGTGAGGGG
TTCGGCACGTGGGTGC

Relative binding free energy, 0.24 kcal/mol:
GGAATCACGTGTATTG

Relative binding free energy, -0.08 kcal/mol:
TAGAGCACGTGTATTG
CTTAACACGTGGGGCT
TATGCCACGTGTGAGG
TGTATCACGTGGGGTA
GAAAACACGTGGGGTG
TGGGACACGTGGAGAT

Relative binding free energy, -0.11 kcal/mol:
GCAAGCACGTGTTGTT
GGGAGCACGTGTACGT
GAGGGCACGTGTCAGG
AGAGGCACGTGGGATG
AAAAGCACGTGGTGGT
GTGTGCACGTGGGGGC

Relative binding free energy, 0.12 kcal/mol:
CTGGACACGTGTTATT
TGGTTCACGTGGCACT
TAAATCACGTGTTTCG

Relative binding free energy, -0.18 kcal/mol:
CGTCGCACGTGGGTAG
ATAGACACGTGGCGGG
TTAGGCACGTGCGGGC

Relative binding free energy, 0.17 kcal/mol:
GGGCTCACGTGTTTGG
AATATCACGTGTGCTG
AGCATCACGTGTGATT

Relative binding free energy, -0.14 kcal/mol:
TGAGGCACGTGCTGTG
TATGGCACGTGTATAA

Relative binding free energy, -0.02 kcal/mol:
TTCAGCACGTGTGTGC
TCTCGCACGTGTGTTT
TCATGCACGTGTGTAT
TATGGCACGTGGGAAT
TACTGCACGTGTATGT

Relative binding free energy, 0.2 kcal/mol:
ATCTTCACGTGTGGGT
CAGTTCACGTGGTTAT
CGAGACACGTGTGGCG
AGTCACACGTGTGTTG
CAGGTCACGTGGACGT
AAATTCACGTGGTGGG

Relative binding free energy, -0.31 kcal/mol:
TGGCGCACGTGCGGCG
AGGCGCACGTGCTTGG

Relative binding free energy, 0.16 kcal/mol:
GATTGCACGTGTATAA
GCAGGCACGTGAGGTA
ATGGACACGTGAGGTT
TAATTCACGTGGCGGT

Relative binding free energy, 0.29 kcal/mol:
CTGTTCACGTGGCAGG
GTATTCACGTGGAGTG
TCGTTCACGTGTGTTT
CGATTCACGTGTGTGT

Relative binding free energy, 0.33 kcal/mol:
AATTTCACGTGATAAT
GGGATCACGTGAAAGG

Relative binding free energy, -0.04 kcal/mol:
GGGTCCACGTGCATGG
TAAGTCACGTGGCTTG
TTTGCCACGTGTTGGC

Relative binding free energy, 0.04 kcal/mol:
GTCGTCACGTGCTGTG
ATACTCACGTGTGTTA
ACGATCACGTGGTTTG

Relative binding free energy, -0.37 kcal/mol:
TATACCACGTGGGGTG

Relative binding free energy, 0.07 kcal/mol:
GTTTGCACGTGTGCGT
ATAATCACGTGGTGTC
AATATCACGTGGTGAA

Relative binding free energy, 0.01 kcal/mol:
ATTGTCACGTGGTGCG
GGACACACGTGGTGGT
ATTGACACGTGTGTGA
CGTGGCACGTGTGGGA

Relative binding free energy, -0.12 kcal/mol:
ATGGACACGTGTTCTG
GTGAACACGTGGGGGA

Relative binding free energy, 0.15 kcal/mol:
AACCTCACGTGTGGGG
TGATCCACGTGTGTTT
AGTGGCACGTGAATGG
TTAATCACGTGCAGTA
GTGGCCACGTGAAGGT
GGGCTCACGTGTGGCT
TCTGTCACGTGTTTTG

Relative binding free energy, 0.31 kcal/mol:
CATTTCACGTGTGTGG
GGGTTCACGTGTACTG
GGGGTCACGTGGATTT
TCATTCACGTGTGCTG

Relative binding free energy, -0.2 kcal/mol:
TTAAGCACGTGGGTTT
AAGCGCACGTGGGCTG
GGAGGCACGTGGGGAG

Relative binding free energy, 0.21 kcal/mol:
AGGTCCACGTGAGGAG
TCTGTCACGTGAGTTG
CTTGTCACGTGAAATG

Relative binding free energy, 0.27 kcal/mol:
TCTCTCACGTGTTGTT
GATGTCACGTGATTGT
CTGATCACGTGTGGGA

Relative binding free energy, 0.43 kcal/mol:
TACTTCACGTGAGGTT

Relative binding free energy, -0.1 kcal/mol:
TGGTGCACGTGGGTCA
TTCGGCACGTGGCGAT
TTAAACACGTGGGGGC
GTGGGCACGTGGCGCA
GAAAACACGTGGGGGA

Relative binding free energy, 0.1 kcal/mol:
GAATGCACGTGATAGG
CTGGGCACGTGAGAGG
TGTGTCACGTGTGGAA
CTGTGCACGTGAAGTG

Relative binding free energy, 0.34 kcal/mol:
AGATTCACGTGATTGT
CGTCTCACGTGGTTGT
CGATTCACGTGAGGGT

Relative binding free energy, -0.09 kcal/mol:
CGATGCACGTGGTTTT
CGATGCACGTGGGTTT
TGTAACACGTGTAGCG
ATTGTCACGTGGGGCG

Relative binding free energy, -0.16 kcal/mol:
TGTGGCACGTGCGTGT
CGAGGCACGTGGATGG
TAGCGCACGTGGTTCG

Relative binding free energy, 0.22 kcal/mol:
ATGGACACGTGTAGAT
GCAGTCACGTGTGTTG

Relative binding free energy, 0.26 kcal/mol:
ACTTTCACGTGTAATG

Relative binding free energy, 0 kcal/mol:
GGGTACACGTGCTGCG
CAGAACACGTGTGGGG
GGGAACACGTGTCTGT
GGGTGCACGTGGATCG
AAGGACACGTGGCAGG
TGTTACACGTGGTCTG
TGTGGCACGTGTGTTG
GATGGCACGTGCGAGT
CGTATCACGTGGGAAG

Relative binding free energy, -0.15 kcal/mol:
CGTGGCACGTGGTGTT
GGTGCCACGTGGTGGG
GTTGCCACGTGGGGGC

Relative binding free energy, 0.39 kcal/mol:
TTGTTCACGTGATGGT

Relative binding free energy, 0.13 kcal/mol:
TTTGACACGTGTATTT
CAGTTCACGTGGGTAT
TGTGACACGTGTAGAG
TTAATCACGTGTGGTG

Relative binding free energy, 0.23 kcal/mol:
GGATTCACGTGCTTGG
ATCTTCACGTGGGTGC

Relative binding free energy, 0.14 kcal/mol:
TTTTCCACGTGTTTAT
GGGTGCACGTGTGACT
GTTTGCACGTGATACG
GTTTACACGTGGGATC
TCTTACACGTGTTCGG
TGCGTCACGTGAGGCT

Relative binding free energy, 0.3 kcal/mol:
GGTGGCACGTGAAAAG
ATATGCACGTGAATCG

Relative binding free energy, 0.02 kcal/mol:
GTGGGCACGTGATACT
GTTGACACGTGTTTAA
GCGGACACGTGTTGTT
GGTGTCACGTGGGATA

Relative binding free energy, 0.08 kcal/mol:
TAGCACACGTGTGGGG
TGGCACACGTGATGGG
GGGTACACGTGGATGG
TTGCGCACGTGTACTT
GCAGTCACGTGTGTGA
TGTGTCACGTGACGCT
TGGAGCACGTGTAATT
TTGGTCACGTGCTTCG

Relative binding free energy, 0.5 kcal/mol:
TGGTTCACGTGAGATG

Relative binding free energy, -0.07 kcal/mol:
GGAAACACGTGTATGT
TTGTCCACGTGGCGGG
CAGTGCACGTGGGGTT
TAAAGCACGTGGTAGC
TTGTGCACGTGTTACT
CTTGACACGTGGCGGT

Relative binding free energy, 0.42 kcal/mol:
GGGTTCACGTGAGTTC

Relative binding free energy, 0.03 kcal/mol:
TTGGCCACGTGTTTTG
AATTGCACGTGGAAAG
GTGCGCACGTGGATTG
TGGGACACGTGGTTTG
ATAGTCACGTGCATGG
CGGTGCACGTGTCGAG
ATTTGCACGTGCATTT
CTTGACACGTGTGCGT
AGGGACACGTGCGGGG

Relative binding free energy, 0.28 kcal/mol:
GGAGTCACGTGACGGG
TGGTACACGTGAGGAG

Relative binding free energy, -0.06 kcal/mol:
TGCGTCACGTGCTTGT
ATTGGCACGTGTCAAG
TTCTACACGTGGGATG

— the BET-seq Pho4 binding data (Le et al. 2018)
